Measured values taken from PubChem BioAssay AID485344 (National Center for Advancing Translational Sciences (NCATS), 2010).
Several values for one entry are separate records, joined by “and”; a condition that tells them apart may be missing. Equal values may be shown once. The whole screen tested about 340,000 compounds, of which about 6,900 (2%) were called active. Rule as the data show it: active = inhibition above about 30%; inactive = below that, where a call was filed. This is a selection; strong and weak results do not stand in their true shares. Where no call is shown, the source filed none.

target: D(2) dopamine receptor (Homo sapiens) (UniProt P14416); assay: HTS Assay for Allosteric Antagonists of the Human D2 Dopamine Receptor: Primary Screen for Antagonists; conditions: HEK293 TREx D2 cells, calcium flux, dopamine EC80; at 10 µM; stronger effect = higher value; also: 0% is about no effect
Outline: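 Overnight-induced (tetracycline, 30 C) HEK293 T-REx cells carrying force-coupled D2 receive a no-wash calcium dye, then compound, then EC80 dopamine at 180 s; signals are read kinetically throughout.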

Chain of UniProt P14416 (P14416 whole entry, looked up): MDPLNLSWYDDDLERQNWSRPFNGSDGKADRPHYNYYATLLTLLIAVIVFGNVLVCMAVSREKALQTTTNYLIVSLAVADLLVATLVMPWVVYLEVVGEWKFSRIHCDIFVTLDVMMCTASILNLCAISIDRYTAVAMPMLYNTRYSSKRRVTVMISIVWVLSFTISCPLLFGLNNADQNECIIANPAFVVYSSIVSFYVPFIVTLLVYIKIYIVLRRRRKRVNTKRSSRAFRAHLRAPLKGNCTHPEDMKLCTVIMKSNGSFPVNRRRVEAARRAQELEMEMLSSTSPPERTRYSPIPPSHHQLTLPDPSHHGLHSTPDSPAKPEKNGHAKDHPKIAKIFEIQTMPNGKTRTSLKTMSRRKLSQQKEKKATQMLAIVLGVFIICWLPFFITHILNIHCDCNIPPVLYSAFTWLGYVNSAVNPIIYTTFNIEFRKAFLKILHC

Compound	inhibition
O=S1(=O)N(Cc2ccccc2)CCCN1Cc1ccc(F)cc1Cl	-0.448%
C1=C(c2c[nH]c3ccccc23)CCNC1	active: 41.9%
CCOc1ccc(CN2CCCC(C(=O)c3ccccc3OC)C2)cc1 (stereo not given)	active: 71.8%
Cc1ccc(OCC(=O)Nc2ccc(Cl)cc2C(=O)c2ccccc2)cc1	-4.61%
Oc1cc2c(cc1CN1CCN(c3ccccc3)CC1)CCC2	active: 72.9%
CC(CCc1ccccc1)NC(C)C(O)c1ccc(O)cc1 (stereo not given)	active: 63.8%
CCN1C(=O)CC(c2cccnc2)=Nc2ccccc21	active: 31.4%
O=C(Nc1ccc(Br)cc1C(=O)c1ccccc1)c1ccccc1	3.85%
COC(=O)c1ccc(NC(=O)c2cccn(Cc3ccccc3C)c2=O)cc1	9.22%
COc1ccccc1N1CCN(Cc2cccc(OC)c2O)CC1	active: 81.3%
CCOc1ccc(CN(CCc2ccc3c(c2)OCO3)Cc2cccc(C)c2)cc1	-13.8%
CCN(CC)C(=O)c1ccc(NC(=O)CCn2nc(-c3ccc(C)cc3)c3ccccc3c2=O)cc1	2.3%
Cc1cccc(C2CC(=O)Oc3c2c(=O)oc2ccccc32)c1 (stereo not given)	-14%
CCCC(CCC)C(=O)OC[N+](C)(C)CCOC(=O)C(O)(c1ccccc1)C1CCCC1 (stereo not given)	active: 39.1%
CCc1ccc(-c2nn(Cc3ccccc3)cc2C=O)cc1	active: 35%
Oc1ccc(Cl)cc1CN1CCN(Cc2ccccc2)CC1	active: 31.9%
CCCC1=Nc2cc(C(=O)NC3CCC(C)CC3)ccc2Sc2ccccc21 (stereo not given)	-1.37%
Fc1ccccc1CCNCc1cccc2ccccc12	active: 31.1%
Cc1cc(NC(=O)c2cccn(Cc3ccccc3)c2=O)no1	-25.9%
Cc1cccc2sc(NC(=O)c3cccn(Cc4ccccc4)c3=O)nc12	-12.6%
Nc1c(C(=O)Nc2cccc(Br)c2)sc2nc3c(cc12)N1CCC3CC1	8.44%
Cc1ccc(C2CC3CCC(C2)N3Cc2ccccc2F)cc1 (stereo not given)	active: 67.8%
CCOc1ccc(CN(CCc2ccc3c(c2)OCO3)Cc2ccc(CC)cc2)cc1	6%
Cc1oc2cc3oc(=O)c(CCC(=O)N4CCCCC4)c(C)c3cc2c1C	12.3%
CCN(CC)C(=O)N[C@H]1C[C@@H]2c3cccc4[nH]cc(c34)C[C@H]2N(C)C1	active: 83.3%

Compound	inhibition
CN1/C(=C\C=C\C2=[N+](C)c3ccc4ccccc4c3C2(C)C)C(C)(C)c2ccccc21	active: 39%
COc1ccc(CN2CCN(Cc3ccccc3F)CC2)cc1	active: 30.7%
COc1ccc2c(c1OC)CN1CCc3cc4c(cc3C1C2)OCO4 (stereo not given)	active: 86.2%
CC(=O)O[C@@]12CO[C@@H]1C[C@H](OC1OCC(O)C(O)C1O)[C@@]1(C)C(=O)[C@H](O)C3=C(C)[C@@H](OC(=O)[C@H](O)[C@@H](NC(=O)c4ccccc4)c4ccccc4)C[C@@](O)([C@@H](OC(=O)c4ccccc4)C12)C3(C)C (stereo not given in full)	active: 37.5%
Cc1ccccc1-n1nc(C)c2c1NC(=O)CSC2c1ccccc1C(F)(F)F (stereo not given)	5.79%
CC(C)[C@@]1(NC(=O)[C@@H]2C=C3c4cccc5[nH]cc(c45)C[C@H]3N(C)C2)O[C@@]2(O)[C@@H]3CCCN3C(=O)[C@H](Cc3ccccc3)N2C1=O	active: 80.2%
CC[C@@H](CO)NC(=O)[C@@H]1C=C2c3cccc4c3c(cn4C)C[C@H]2N(C)C1	active: 32.4% and active: 62.6% and active: 47.5%
CCN1CCN(c2ccc(N)c(C)c2)CC1	active: 49.4%
COc1ccccc1CN1CCN(C(=O)COc2cccc(C)c2)CC1	16.1%
COc1ccc(NC(=O)CN2C(=O)CN=C(c3ccccc3)c3ccccc32)c(OC)c1	5.54%
Cc1ccc(C(C)C)c(OCC#CCN2CCCC2)c1	active: 34.7%
Fc1ccc(N2CCN(Cc3ccc4c(c3)OCO4)CC2)cc1	active: 65.6%
COC(=O)C1=C(c2ccc(C(C)=O)cc2)C[C@@H]2CC[C@H]1N2C(=O)NC(C)C	active: 52.2%
O=C(COc1ccccc1Cl)N1CCN(CCc2ccccn2)CC1	24.6%
CCOc1ccc(CN(CCc2ccc3c(c2)OCO3)Cc2cccc(Br)c2)cc1	11.9%
Cc1nnc(NC(=O)c2cccn(Cc3ccccc3)c2=O)s1	1.15%
Cc1cccc(OC(C)C(=O)NCC2(N(C)C)CCCCC2)c1C (stereo not given)	7.67%
O=c1cccc2n1CC1CC2CN(C(c2ccccc2)c2sc3ncnn3c2O)C1 (stereo not given)	active: 31.6%
O=C(Nc1nc2ccccc2s1)c1cccn(Cc2ccccc2)c1=O	-13.4%
COc1ccccc1-n1c(-c2ccccc2)nc2ccccc2c1=O	active: 39.8%
CCOC(=O)c1c(N)n(Cc2ccco2)c2nc3ccccc3nc12	active: 30%
CCOC(=O)C1CCCCC12C(C#N)=C(N)Oc1n[nH]c(C)c12 (stereo not given)	active: 30.5%
C1=C(CCNCc2ccccc2)CCCC1	active: 39.3%
Cc1ccc(CNC(=O)CCCn2c(=O)c3sccc3n(CC(=O)Nc3c(C)cccc3C)c2=O)cc1	-23.6%
CCNc1cc(N2CCNCC2)ccc1[N+](=O)[O-]	active: 35.3%
